Measured values taken from the supplement of paper PMC12350171.
Synthetic gut communities (20 or 21 species) grown anaerobically with drug for 24 h at the dose given, then challenged with the named pathogen. Pathogen growth (luminescence, or colony counts for V. cholerae) or community OD578 as fold of untreated communities, mean of three; above 1 = more growth. No active / inactive call.

How the values were obtained:
[1] = test system: Salmonella enterica Typhimurium in Com20; assay: S. Typhimurium luminescence in drug-pretreated Com20 relative to untreated Com20 (fold of untreated control); higher = more pathogen expansion
[2] = test system: Salmonella enterica Typhimurium (community: Com21 (Com20 + E. coli ED1a)); assay: pathogen growth (luminescence or CFU) in drug-pretreated community relative to untreated community (fold of untreated control); higher = more pathogen expansion
[3] = test system: Com20 synthetic gut community; assay: Com20 community biomass OD578 after 24 h drug treatment relative to untreated (fraction of untreated control); higher = more community growth
[4] = drug pretreatment concentration 10 µM
[5] = drug pretreatment concentration 20 µM
[6] = drug pretreatment concentration 40 µM
[7] = drug pretreatment concentration 80 µM
[8] = drug pretreatment concentration 160 µM
[9] = drug pretreatment concentration 2.5 µM
[10] = drug pretreatment concentration 5 µM

Row | SMILES | S. Typhimurium luminescence [1, 4] | S. Typhimurium luminescence [1, 5] | S. Typhimurium luminescence [1, 6] | S. Typhimurium luminescence [1, 7] | S. Typhimurium luminescence [1, 8] | pathogen growth [2, 4] | pathogen growth [2, 5] | pathogen growth [2, 6] | pathogen growth [2, 7] | pathogen growth [2, 8] | Com20 community biomass OD578 [3, 4] | Com20 community biomass OD578 [3, 5] | Com20 community biomass OD578 [3, 6] | Com20 community biomass OD578 [3, 7] | Com20 community biomass OD578 [3, 8] | S. Typhimurium luminescence [1, 9] | S. Typhimurium luminescence [1, 10] | pathogen growth [2, 9] | pathogen growth [2, 10] | Com20 community biomass OD578 [3, 9] | Com20 community biomass OD578 [3, 10]
1 | C[C@@H](O[C@H]1OCCN(Cc2n[nH]c(=O)[nH]2)[C@H]1c1ccc(F)cc1)c1cc(C(F)(F)F)cc(C(F)(F)F)c1 [Aprepitant] | 1.52 | 1.22 | 1.26 | 1.07 | 1.07 | 1.19 | 1.28 | 2.25 | 1.48 | 1.25 | 1.03 | 1.02 | 1.05 | 1.06 | 1.06 |  |  |  |  |  | 
2 | CCc1oc2ccccc2c1C(=O)c1cc(Br)c(O)c(Br)c1 [Benzbromarone] | 2.46 | 1.76 | 2.1 | 4.61 | 3.77 | 2.26 | 2.03 | 2.88 | 2.94 | 5.94 | 0.943 | 0.936 | 0.87 | 0.712 | 0.724 |  |  |  |  |  | 
3 | COCCOC(=O)C1=C(C)NC(C)=C(C(=O)OC/C=C/c2ccccc2)C1c1cccc([N+](=O)[O-])c1 (stereo not drawn) [Cilnidipine] | 0.71 | 0.846 | 1.09 |  |  | 0.758 | 0.865 | 0.717 |  |  | 1.07 | 1.02 | 1.04 |  |  | 1.5 | 0.816 | 0.928 | 0.855 | 1.06 | 1.07
4 | CCC[C@@H]1C[C@@H](C(=O)N[C@@H]([C@H]2O[C@H](SC)[C@H](O)[C@@H](O)[C@H]2O)[C@H](C)Cl)N(C)C1 [Clindamycin] |  |  |  |  |  | 4.4 | 3.9 | 3.68 |  |  | 0.002 | 0.004 | 0.001 | 0.003 | 0.006 |  |  |  |  |  | 
5 | C[C@H]1c2cccc(O)c2C(=O)C2=C(O)[C@]3(O)C(=O)C(C(N)=O)=C(O)[C@@H](N(C)C)[C@@H]3[C@@H](O)[C@@H]21 [Doxycycline] |  |  |  |  |  |  |  |  |  |  | 0.018 | 0.002 | 0.006 | 0.007 | 0.007 |  |  |  |  |  | 
6 | CCN(CC)C(C)CN1c2ccccc2Sc2ccccc21 (stereo not drawn) [Ethopropazine] | 1.53 | 1.18 | 1.48 | 1.24 | 1.86 | 1.57 | 1.41 | 1.09 | 1.41 | 1.82 |  |  |  |  |  |  |  |  |  |  | 
7 | OC(Cn1cncn1)(Cn1cncn1)c1ccc(F)cc1F [Fluconazole] | 0.915 | 0.979 | 0.767 | 0.855 | 0.937 | 1.23 | 1.3 | 0.808 | 1 | 1.36 |  |  |  |  |  |  |  |  |  |  | 
8 | CC(=O)N1CCN(c2ccc(OCC3COC(Cn4ccnc4)(c4ccc(Cl)cc4Cl)O3)cc2)CC1 (stereo not drawn) [Ketoconazole] | 1.46 | 0.934 | 0.96 | 0.863 | 1.93 | 1.33 | 0.926 | 0.706 | 1.23 | 2.48 |  |  |  |  |  |  |  |  |  |  | 
9 | CCOC(=O)C1=C(C)NC(C)=C(C(=O)OCC)C1c1ccccc1/C=C/C(=O)OC(C)(C)C [Lacidipine] | 0.599 | 0.515 | 0.757 |  |  | 0.77 | 0.813 | 0.541 |  |  |  |  |  |  |  | 1.17 | 0.776 | 1.35 | 0.954 |  | 
10 | Cc1c(OCC(F)(F)F)ccnc1C[S+]([O-])c1nc2ccccc2[nH]1 (stereo not drawn) [Lansoprazole] | 1.59 | 1.29 | 1.07 | 1.35 | 2.22 | 1.34 | 1.02 | 0.855 | 0.756 | 1.1 |  |  |  |  |  |  |  |  |  |  | 
11 | CCOC(=O)N1CCC(=C2c3ccc(Cl)cc3CCc3cccnc32)CC1 [Loratadine] | 0.68 | 0.637 | 0.754 |  |  |  |  |  |  |  | 1.01 | 1.01 | 0.956 |  |  | 1.05 | 0.82 |  |  | 1 | 1.02
12 | CN1CCN(C2=Nc3ccccc3Oc3ccc(Cl)cc32)CC1 [Loxapine] | 2.21 | 1.33 | 1.42 | 1.69 | 2.46 | 1.47 | 1.24 | 1.1 | 1.3 | 2.04 |  |  |  |  |  |  |  |  |  |  | 
13 | Cc1c(N(C)CS(=O)(=O)O)c(=O)n(-c2ccccc2)n1C [Metamizole] | 1.1 | 0.914 | 0.884 | 1.02 | 1.11 | 1.16 | 1.21 | 1.09 | 1.08 | 1.16 |  |  |  |  |  |  |  |  |  |  | 
14 | CN(C)C(=N)NC(=N)N [Metformin] | 1.68 | 1.12 | 0.858 | 0.98 | 1.13 | 1.12 | 0.933 | 0.786 | 0.862 | 1.25 |  |  |  |  |  |  |  |  |  |  | 
15 | CN(Cc1cnc2nc(N)nc(N)c2n1)c1ccc(C(=O)N[C@@H](CCC(=O)O)C(=O)O)cc1 [Methotrexate] | 2.06 | 2.98 | 4.13 |  |  | 1.21 | 1.31 | 1.85 |  |  |  |  |  |  |  | 1.87 | 1.4 | 1.37 | 1.51 |  | 
16 | O=C(Nc1ccc([N+](=O)[O-])cc1Cl)c1cc(Cl)ccc1O [Niclosamide] | 2.05 | 1.61 | 1.67 | 1.68 | 2.53 | 0.921 | 0.838 | 0.692 | 1.27 | 1.16 |  |  |  |  |  |  |  |  |  |  | 
17 | CC(CN1c2ccccc2Sc2ccccc21)N(C)C (stereo not drawn) [Promethazine] | 1.47 | 1.14 | 1.01 | 1.08 | 1.3 | 1.07 | 1.57 | 1.03 | 1.61 | 2.48 |  |  |  |  |  |  |  |  |  |  | 
18 | CNCCCC1c2ccccc2C=Cc2ccccc21 [Protriptyline] | 1.48 | 1.17 | 0.997 | 1.22 | 1.78 | 1.12 | 1.4 | 1.2 | 1.31 | 2.21 |  |  |  |  |  |  |  |  |  |  | 
19 | CC/C(=C(\c1ccccc1)c1ccc(OCCN(C)C)cc1)c1ccccc1 [Tamoxifen] | 1.08 | 0.813 | 1.44 |  |  | 1 | 0.839 | 1.59 |  |  |  |  |  |  |  | 1.42 | 1.07 | 1.05 | 1.06 |  | 
20 | NC[C@H]1O[C@H](O[C@H]2[C@H](O)[C@@H](O[C@H]3O[C@H](CO)[C@@H](O)[C@H](N)[C@H]3O)[C@H](N)C[C@@H]2N)[C@H](N)C[C@@H]1O [Tobramycin] | 1.66 | 0.901 | 0.799 | 0.769 | 0.357 | 1.11 | 1.27 | 1.52 | 4.91 | 1.8 |  |  |  |  |  |  |  |  |  |  | 
21 | Cc1c(Cl)cccc1Nc1ccccc1C(=O)O [Tolfenamic acid] | 1.57 | 1.06 | 1.19 | 1.26 | 2.59 | 0.982 | 0.906 | 0.946 | 0.943 | 1.29 |  |  |  |  |  |  |  |  |  |  | 
22 | CCOC1O[C@H]([C@@H](COCc2ccccc2)OCc2ccccc2)[C@H](OCc2ccccc2)[C@H]1O (stereo partly drawn) [Tribenoside] | 1.36 | 0.797 | 0.894 | 0.935 | 1.22 | 1.45 | 1.19 | 1.02 | 0.956 | 0.685 |  |  |  |  |  |  |  |  |  |  | 
